Eleven compounds from the antibiotic and cytotoxicity screens of Wong et al. (2023) can be followed below.

This is one part of the list.

This experiment has as its system S. aureus RN4220. The experiment in a line: growth inhibition call (relative growth <= 0.2). The note with it: 50 µM.
`C[C@H](CO)N1C[C@H](C)[C@H](CN(C)C(=O)Nc2ccc(F)cc2)Oc2ncc(-c3cccc(C(F)(F)F)c3)cc2C1=O`: the growth inhibition call is “inactive”.

Turning to `C[C@H]1CN([C@@H](C)CO)C(=O)c2cccc(NC(=O)Nc3ccc(C(F)(F)F)cc3)c2O[C@H]1CN(C)Cc1ccc(-c2ccccc2)cc1`, the growth inhibition call was “inactive”.

For the compound `C[C@H]1CN([C@@H](C)CO)C(=O)Cc2cc(NC(=O)Cn3cnnn3)ccc2O[C@H]1CN(C)C(=O)Nc1ccc2c(c1)OCO2`, the growth inhibition call is “inactive”.

Consider `C[C@H]1CN([C@@H](C)CO)S(=O)(=O)c2ccc(Br)cc2O[C@@H]1CN(C)C(=O)Cc1ccccc1`, for which the growth inhibition call was “inactive”.

For the compound `C[C@@H]1CN([C@@H](C)CO)C(=O)c2cccc(NS(=O)(=O)c3ccc(Cl)cc3)c2O[C@H]1CN(C)Cc1ccc(Oc2ccccc2)cc1`, the growth inhibition call was “inactive”.

In the case of `CC(C)(C)N1C[C@H](C(=O)O)CC1=O`, the growth inhibition call is “inactive”.

In the case of `C=CCOC[C@H]1NCCc2c1nnn2CC`, the growth inhibition call was “inactive”.

`C=CC[C@@H](CC(=O)N[C@@H](CO)Cc1ccccc1)C(=O)N1CCC[C@@H]1COC(=O)[C@@H](CC=C)NC(=O)OCC1c2ccccc2-c2ccccc21`: the growth inhibition call is “inactive”.

As to `O=C(C[C@@H]1CC[C@H]2[C@@H](COC[C@H](O)CN2S(=O)(=O)c2ccccc2F)O1)NCc1ccccc1Cl`, the growth inhibition call is “inactive”.

Consider `CC(C)C#Cc1cnc2c(c1)C(=O)N([C@@H](C)CO)C[C@@H](C)[C@@H](CN(C)C(=O)c1ccc3c(c1)OCO3)O2`, for which the growth inhibition call is “inactive”.

Consider `C[C@H]1CN([C@@H](C)CO)C(=O)Cc2cc(NC(=O)Cc3ccccc3)ccc2O[C@@H]1CN(C)Cc1ccc(C(F)(F)F)cc1`, for which the growth inhibition call was “inactive”.
